Where “and” joins values, the source holds several entries; their conditions need not be identical. Equal values may be shown once. Inconclusive results, whose numbers are uncertain, are shown with a selection of clear calls. Potencies of inconclusive entries are doubtful fits and often do not repeat. A structure can be active in one record and inactive in another. Calls of active or inactive are those of the source. Calls come from the whole dose curve; as a rule, active = well fitted curve in the direction sought with a large enough effect in the repeat runs; inconclusive = weak or mixed curves; inactive = no such curve, though single readings can be large; an effect the other way counts as inactive or inconclusive.
Key:
[1] = Caspase-3/7 induction in CHO-K1 cells by small molecules, qHTS cell viability counter screen (AID 1346979); details: CellTiter-Fluor fluorescence, 17 h; series mostly up to 92.4 µM; note: nearly all actives have a fitted effect of over 35% in size
How it was run: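 Viability readout by fluorescence (CellTiter-Fluor) on wild-type CHO-K1 cells exposed for 16hr at 37C and 5% CO2 to compounds delivered in DMSO; reagent incubated 1hr before reading.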

[2] = target: Nuclear receptor subfamily 1 group I member 2 (Homo sapiens) (UniProt O75469); test: Human pregnane X receptor (PXR) small molecule agonists, qHTS assay (AID 1346982); details: PXR-Luc HepG2, CYP3A4 luciferase reporter, 24 h; series mostly up to 92.4 µM; note: nearly all actives have a fitted effect of over 35% in size
How it was run: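 After plating in 5% charcoal-stripped FBS and a 5 hr rest, PXR-Luc HepG2 cells received compounds in DMSO. Following 24 hr at 37 C, ONE-Glo was added and light output read.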

[3] = target: Cytochrome P450 2C19 (Homo sapiens) (UniProt P33261); test: Cytochrome P450 Family 2 Subfamily C Member 19 (CYP2C19) small molecule antagonists: luciferase reporter qHTS assay (AID 1671197); details: P450-Glo CYP2C19 enzyme, luciferin luminescence, 1 h; series mostly up to 115 µM; note: nearly all actives have a fitted effect of over 65% in size
How it was run: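 P450-Glo CYP2C19 screening system; proluciferin substrate; DMSO compound stocks; 10 min RT preincubation; NADPH regeneration, 1 h at 37C; luciferin detection reagent, 20 min RT; luminescence as RLU.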

[4] = target: Cytochrome P450 2D6 (Homo sapiens) (UniProt P10635); test: Cytochrome P450 Family 2 Subfamily D Member 6 (CYP2D6) small molecule antagonists: luciferase reporter qHTS assay (AID 1671196); details: P450-Glo CYP2D6 enzyme assay, luciferin luminescence, 1 h; series mostly up to 115 µM; note: nearly all actives have a fitted effect of over 50% in size
How it was run: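 Quantitative HTS of Tox21 chemicals against CYP2D6 using a luminescent proluciferin substrate. After NADPH addition, 1 h room-temperature reaction; luminescence recorded 20 min post detection reagent.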

[5] = target: Nuclear receptor subfamily 1 group I member 2 (Homo sapiens) (UniProt O75469); test: Human pregnane X receptor (PXR) activation by small molecules, qHTS assay (AID 1346985); details: DPX-2 HepG2 CYP3A4-luciferase, 24 h; series mostly up to 38.3 µM; note: nearly all actives have a fitted effect of over 40% in size
How it was run: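 DPX-2 cells (HepG2 co-transfected with a PXR response element and a CYP3A4-promoter luciferase construct) were seeded at 2,000 per well, rested 5 hr at 37C, then exposed to DMSO-dissolved compounds for 24 hr. Activation was read as luciferase luminescence.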

[6] = Caspase-3/7 induction in CHO-K1 cells by small molecules, qHTS assay (AID 1346980); details: CHO-K1 caspase-3/7 induction, Caspase-Glo luminescence, 17 h; series mostly up to 92.4 µM; note: nearly all actives have a fitted effect of over 15% in size
How it was run: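 Luminescent Caspase-Glo 3/7 read (30min, room temperature) quantified apoptosis induction. Cells were wild-type CHO-K1, treated with compound for 17hr at 37 C and 5% CO2.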

[7] = target: Nuclear receptor subfamily 1 group I member 2 (Rattus norvegicus) (UniProt Q9R1A7); test: Rat pregnane X receptor (rPXR) activation by small molecules, qHTS assay (AID 1346983); details: rPXR luciferase reporter cells, One-Glo luminescence, 24 h; max activation: stronger effect = higher value; note: nearly all actives have a fitted effect of over 20% in size
How it was run: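 Luminescent readout (One-Glo luciferase, 30 min room temperature) followed 24 hr compound treatment at 37 C of rPXR cells plated 2,000 per well and preincubated 5hr; qHTS format with compounds delivered in DMSO.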
Potency is the fitted concentration of half-maximal effect; tags give direction and shape of the fitted curve.

UniProt Q9R1A7, sequence (Q9R1A7 whole entry, looked up): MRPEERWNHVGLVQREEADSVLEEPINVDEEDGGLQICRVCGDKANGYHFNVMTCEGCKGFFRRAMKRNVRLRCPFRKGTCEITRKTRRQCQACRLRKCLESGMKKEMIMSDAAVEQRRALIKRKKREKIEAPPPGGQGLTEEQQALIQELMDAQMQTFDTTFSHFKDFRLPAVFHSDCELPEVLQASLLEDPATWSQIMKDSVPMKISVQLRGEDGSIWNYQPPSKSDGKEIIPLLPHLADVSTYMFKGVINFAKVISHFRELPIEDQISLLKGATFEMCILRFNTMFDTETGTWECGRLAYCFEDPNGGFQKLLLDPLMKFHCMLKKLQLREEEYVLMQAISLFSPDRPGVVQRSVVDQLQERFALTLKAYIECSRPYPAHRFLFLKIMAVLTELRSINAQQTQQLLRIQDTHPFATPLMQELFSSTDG
UniProt P10635, sequence (P10635 whole entry, looked up): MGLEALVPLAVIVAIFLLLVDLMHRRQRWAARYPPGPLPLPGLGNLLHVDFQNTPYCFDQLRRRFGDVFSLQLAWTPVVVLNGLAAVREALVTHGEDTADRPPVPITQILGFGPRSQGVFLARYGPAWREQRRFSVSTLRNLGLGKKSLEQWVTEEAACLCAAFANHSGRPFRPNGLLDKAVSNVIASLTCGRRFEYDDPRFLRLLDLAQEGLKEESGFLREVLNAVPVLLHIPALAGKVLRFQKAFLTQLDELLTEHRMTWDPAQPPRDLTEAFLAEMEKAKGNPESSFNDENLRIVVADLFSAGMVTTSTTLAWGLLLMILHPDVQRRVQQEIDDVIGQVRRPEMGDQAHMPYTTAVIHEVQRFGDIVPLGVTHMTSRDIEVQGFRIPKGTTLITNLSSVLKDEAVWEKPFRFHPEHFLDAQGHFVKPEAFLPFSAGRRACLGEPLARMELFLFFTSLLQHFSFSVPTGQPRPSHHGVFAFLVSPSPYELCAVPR
UniProt P33261, sequence (P33261 whole entry, looked up): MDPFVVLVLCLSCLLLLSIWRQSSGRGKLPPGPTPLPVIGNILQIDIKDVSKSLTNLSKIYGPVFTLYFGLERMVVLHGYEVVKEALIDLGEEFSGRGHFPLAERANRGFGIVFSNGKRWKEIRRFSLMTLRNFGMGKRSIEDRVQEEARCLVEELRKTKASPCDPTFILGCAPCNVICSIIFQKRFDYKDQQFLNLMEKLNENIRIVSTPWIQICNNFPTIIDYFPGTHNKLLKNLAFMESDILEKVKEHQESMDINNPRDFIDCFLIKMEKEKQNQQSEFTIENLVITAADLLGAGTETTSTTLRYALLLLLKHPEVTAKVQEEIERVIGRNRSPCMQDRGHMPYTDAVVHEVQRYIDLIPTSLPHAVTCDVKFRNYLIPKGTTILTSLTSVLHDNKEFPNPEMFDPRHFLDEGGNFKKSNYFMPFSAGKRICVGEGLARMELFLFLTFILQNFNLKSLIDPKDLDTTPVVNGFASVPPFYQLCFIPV

SMILES: CN(C)CCN(Cc1cccs1)c1ccccn1
- Potency [1]: inactive
- Potency [2]: inconclusive: 21.6 µM [activator, partial curve, poor fit]
- Potency [3]: inactive

SMILES: N/C(=N\N=C\c1ccc(Cl)cc1)N/N=C/c1ccc(Cl)cc1
- Potency [1]: inconclusive: 33.5 µM [cytotoxic, single point]
- Potency [4]: inconclusive: 27.5 µM [inhibitor]

SMILES: Nc1nc(N)c2nc(-c3ccccc3)c(N)nc2n1
- Potency [1]: inconclusive: 11 µM [rising, partial curve] and inconclusive: 19.3 µM [rising, partial curve] and inconclusive: 21.1 µM [rising, partial curve]
- Potency [4]: inconclusive: 39.9 µM [inhibitor, partial curve]

SMILES: CC(C)(c1ccccc1)c1ccc(Nc2ccc(C(C)(C)c3ccccc3)cc2)cc1
- Potency [1]: inconclusive: 76.9 µM [cytotoxic, single point] and inconclusive: 77 µM [cytotoxic, single point]
- Potency [4]: inconclusive: 71 µM [inhibitor, partial curve, poor fit]
- Potency [3]: inconclusive: 7.96 µM [inhibitor, full curve] and inactive

SMILES: Clc1ccc2c(c1)C(N1CCNCC1)=Nc1ccccc1O2
- Potency [1]: inconclusive: 77 µM [cytotoxic, single point]
- Potency [3]: active: 63.3 µM and inactive

SMILES: CCCCC(CC)COC(=O)c1ccc(N(C)C)cc1 (centres undefined)
- Potency [1]: inactive and inconclusive: 68.6 µM [cytotoxic, single point]
- Potency [5]: inactive
- Potency [4]: inconclusive: 80 µM [inhibitor] and inconclusive: 39.9 µM [inhibitor, partial curve]

SMILES: c1ccc2n[nH]nc2c1
- Potency [1]: inactive
- Potency [3]: inconclusive: 77.4 µM [inhibitor, partial curve, poor fit]

SMILES: O=S1(=O)CC(Cl)(Cl)C(Cl)(Cl)C1
- Potency [6]: active: 0.486 µM

SMILES: O=c1cc(-c2ccccc2)oc2ccccc12
- Potency [1]: inconclusive: 61.1 µM [cytotoxic, single point]
- Potency [4]: inconclusive: 46.3 µM [inhibitor]

SMILES: CCn1c2ccccc2c2cc(N)ccc21
- Potency [1]: active: 53.9 µM and inactive and active: 43.3 µM
- Potency [2]: active: 5.39 µM and active: 30.6 µM and inactive
- Potency [4]: active: 703 nM and active: 3.99 µM and active: 10 µM
- Potency [3]: active: 4.43 µM and active: 31.7 µM and active: 12.6 µM

SMILES: CC(C)(C)c1ccc(C(=O)CCCN2CCC(OC(c3ccccc3)c3ccccc3)CC2)cc1
- Potency [6]: active: 21.1 µM

SMILES: OCC(CO)(CBr)CBr
- Potency [1]: inactive
- Potency [3]: inconclusive: 50.9 µM [inhibitor, partial curve, poor fit]

SMILES: OC1(c2ccc(Cl)c(C(F)(F)F)c2)CCN(CCCC(c2ccc(F)cc2)c2ccc(F)cc2)CC1
- Potency [6]: inconclusive: 13.3 µM [activator, single point]

SMILES: c1ccc2c(c1)CCc1ccccc1N2
- Potency [1]: inconclusive: 68.9 µM [cytotoxic, single point]
- Potency [4]: inconclusive: 71.3 µM [inhibitor, partial curve] and inactive

SMILES: CCCN(CCC)c1c([N+](=O)[O-])cc(C(F)(F)F)c(N)c1[N+](=O)[O-]
- Potency [1]: active: 43.1 µM
- Potency [4]: inconclusive: 25.1 µM [inhibitor, partial curve]
- Potency [3]: active: 2 µM

SMILES: Cc1oncc1C(=O)Nc1ccc(C(F)(F)F)cc1
- Potency [1]: inconclusive: 68.6 µM [cytotoxic]
- Potency [7]: inconclusive: 3.98 µM [activator, partial curve]
- Potency [4]: inconclusive: 27.5 µM [inhibitor, partial curve]

SMILES: CCCCCCOC(=O)c1ccc(O)cc1
- Potency [1]: inconclusive: 68.7 µM [cytotoxic, single point] and inconclusive: 68.6 µM [cytotoxic]
- Potency [2]: inconclusive: 61.1 µM [activator, single point]
- Potency [4]: inconclusive: 71.1 µM [inhibitor, partial curve] and inconclusive: 79.6 µM [inhibitor, single point]

SMILES: CC/C(=C(\c1ccc(O)cc1)c1ccc(OCCN(C)C)cc1)c1ccccc1
- Potency [6]: inconclusive: 30.7 µM [activator, single point]

SMILES: c1ccc2c(c1)-c1cccc3c1c-2cc1ccccc13
- Potency [1]: inconclusive: 68.6 µM [cytotoxic, single point]
- Potency [3]: inconclusive: 6.19 µM [inhibitor, full curve] and inconclusive: 89.4 µM [inhibitor, single point]

SMILES: O=C1CN(/N=C/c2ccc([N+](=O)[O-])o2)C(=O)N1
- Potency [1]: active: 60.9 µM and active: 68.6 µM and active: 33.5 µM
- Potency [5]: inactive
- Potency [4]: inconclusive: 39.8 µM [inhibitor, partial curve] and inconclusive: 79.6 µM [inhibitor]
- Potency [3]: inconclusive: 89.4 µM [inhibitor, single point]

SMILES: CC(=O)Nc1ccc(C(=O)CCl)cc1
- Potency [1]: active: 54.8 µM and active: 17.2 µM
- Potency [4]: inconclusive: 63.6 µM [inhibitor, partial curve, poor fit] and inconclusive: 39.9 µM [inhibitor, partial curve]

SMILES: NC(N)=NC(N)=NCCc1ccccc1
- Potency [1]: inconclusive: 76.5 µM [cytotoxic, single point]
- Potency [3]: inconclusive: 88.9 µM [inhibitor, single point] and inconclusive: 389 nM [inhibitor, single point]

SMILES: CC(C)(C)CC(C)(C)c1ccc(OCCOCC[N+](C)(C)Cc2ccccc2)cc1
- Potency [1]: inconclusive: 29.8 µM [cytotoxic, single point]
- Potency [3]: inconclusive: 70.9 µM [inhibitor, partial curve, poor fit]

SMILES: C=C(C)CNCC
- Potency [1]: inconclusive: 68.6 µM [rising, partial curve, poor fit]
- Potency [4]: active: 31.2 µM and inactive

SMILES: COc1ccc(-c2ccc3cc(C(=O)O)ccc3c2)cc1C12CC3CC(CC(C3)C1)C2
- Potency [1]: inconclusive: 13.3 µM [cytotoxic, single point]
- Potency [4]: inconclusive: 30.9 µM [inhibitor, partial curve]

SMILES: Oc1ccc(-c2ccccc2)c(Cl)c1
- Potency [1]: inconclusive: 61.1 µM [cytotoxic]
- Potency [4]: inconclusive: 71 µM [inhibitor, partial curve, poor fit]

SMILES: C=C(C)C(=O)OCCC[Si](OC)(OC)OC
- Potency [1]: inactive
- Potency [4]: active: 62.6 µM and inactive
- Potency [3]: inconclusive: 63.3 µM [inhibitor, partial curve]

SMILES: CCOC(=O)[C@H](CCc1ccccc1)N[C@@H](C)C(=O)N1Cc2ccccc2C[C@H]1C(=O)O
- Potency [1]: inconclusive: 61.6 µM [cytotoxic, single point] and inconclusive: 33.5 µM [cytotoxic, single point]
- Potency [5]: inactive
- Potency [4]: inconclusive: 38.9 µM [inhibitor, single point]

SMILES: N=C1N=C(N)c2cc3ccccc3cc21
- Potency [6]: inconclusive: 68.6 µM [activator]

SMILES: CC(C)Oc1ccc2c(=O)c(-c3ccccc3)coc2c1
- Potency [1]: inconclusive: 33.5 µM [cytotoxic, single point]
- Potency [7]: active: 0.316 µM
- Potency [5]: inconclusive: 5.01 µM [activator, full curve, poor fit]
- Potency [4]: inconclusive: 34.7 µM [inhibitor, partial curve]
- Potency [3]: inconclusive: 17.4 µM [inhibitor, single point]

SMILES: Cc1cc(Br)ccc1NC(=O)CCl
- Potency [1]: active: 21.7 µM
- Potency [4]: inconclusive: 71 µM [inhibitor, partial curve, poor fit]

SMILES: CCCCC(CC)COC(=O)/C=C/c1ccc(OC)cc1 (centres undefined)
- Potency [1]: inconclusive: 1.08 µM [rising, partial curve, poor fit]
- Potency [7]: inconclusive: 35.5 µM [activator, single point]
- Potency [3]: active: 39.8 µM and active: 25.2 µM and active: 24.5 µM

SMILES: CCN(CC)c1ccc2c(C)cc(=O)oc2c1
- Potency [1]: inconclusive: 30.9 µM [rising, partial curve] and inconclusive: 34.4 µM [rising, partial curve]
- Potency [4]: inconclusive: 90.1 µM [inhibitor]
- Potency [3]: active: 40.2 µM and active: 31.7 µM

SMILES: COc1ccc(C(Cl)=C(c2ccc(OC)cc2)c2ccc(OC)cc2)cc1
- Potency [1]: inconclusive: 76.6 µM [cytotoxic, partial curve] and inconclusive: 77 µM [cytotoxic, single point]
- Potency [4]: inconclusive: 15.8 µM [inhibitor, full curve]

SMILES: CC(=O)c1cc2ccccc2s1
- Potency [1]: inconclusive: 33.5 µM [cytotoxic, single point]
- Potency [3]: inactive

SMILES: Clc1ccccc1C(c1ccccc1)(c1ccccc1)n1ccnc1
- Potency [7]: active: 3.98 µM

SMILES: CC(C)(C)NC(=O)[C@@H]1C[C@@H]2CCCC[C@@H]2CN1C[C@@H](O)[C@H](Cc1ccccc1)NC(=O)[C@H](CC(N)=O)NC(=O)c1ccc2ccccc2n1
- Potency [5]: inconclusive: 15.8 µM [activator, partial curve, poor fit]

Source: PubChem BioAssay (Tox21)
